Results as given in the supplement of paper PMC3334620.
Over roughly 33,000 sequences, “E-score (-0.5 to 0.5)” has its median near -0.035; the highest 2% begin near 0.35. The list shows a part of the results.

Each sequence was assayed against T1, Pdr3 (UniProt P33200) (assay: PBM E-score (8-mer binding enrichment) (E-score (-0.5 to 0.5)); higher = stronger / more preferred TF binding; most listed sequences are background and not binding sites). Conditions: protein concentration: 200 nM; construct: GST-full length.
T1 sequence: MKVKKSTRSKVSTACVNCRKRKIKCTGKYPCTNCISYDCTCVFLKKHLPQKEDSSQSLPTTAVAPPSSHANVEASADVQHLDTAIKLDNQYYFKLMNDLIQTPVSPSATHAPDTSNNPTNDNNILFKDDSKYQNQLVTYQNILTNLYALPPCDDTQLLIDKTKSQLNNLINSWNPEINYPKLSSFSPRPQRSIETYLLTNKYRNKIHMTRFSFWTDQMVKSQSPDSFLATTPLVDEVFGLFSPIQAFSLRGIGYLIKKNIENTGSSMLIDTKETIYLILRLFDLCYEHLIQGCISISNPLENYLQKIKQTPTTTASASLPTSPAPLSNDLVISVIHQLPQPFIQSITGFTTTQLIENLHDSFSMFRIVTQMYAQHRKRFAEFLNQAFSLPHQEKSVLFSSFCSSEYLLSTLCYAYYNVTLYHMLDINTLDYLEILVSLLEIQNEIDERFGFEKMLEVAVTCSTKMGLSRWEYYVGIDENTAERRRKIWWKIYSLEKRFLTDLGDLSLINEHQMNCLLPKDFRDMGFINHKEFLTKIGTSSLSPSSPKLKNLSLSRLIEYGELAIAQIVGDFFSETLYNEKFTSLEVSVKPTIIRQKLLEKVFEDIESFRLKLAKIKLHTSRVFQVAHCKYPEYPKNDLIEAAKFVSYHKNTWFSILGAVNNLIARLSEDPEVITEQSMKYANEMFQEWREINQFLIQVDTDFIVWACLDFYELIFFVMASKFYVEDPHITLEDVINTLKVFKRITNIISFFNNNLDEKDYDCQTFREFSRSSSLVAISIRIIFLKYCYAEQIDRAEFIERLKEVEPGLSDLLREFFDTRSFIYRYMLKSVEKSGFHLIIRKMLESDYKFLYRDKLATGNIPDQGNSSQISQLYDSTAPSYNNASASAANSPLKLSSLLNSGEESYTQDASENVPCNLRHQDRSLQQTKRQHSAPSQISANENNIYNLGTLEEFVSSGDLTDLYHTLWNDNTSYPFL
Procedure, shortened: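 GST-tagged yeast TFs (full-length or DNA-binding domain) were made by PURExpress in vitro transcription/translation and applied at about 100-200 nM to universal all-10-mer Agilent arrays. The arrays were made double-stranded by primer extension, on fresh or once-stripped slides. Bound protein was detected with fluorescent anti-GST, and scans were normalised with masliner. Each ungapped eight-base word, pooled with its reverse complement, received an E-score (modified Wilcoxon-Mann-Whitney statistic) from the Universal PBM Analysis Suite.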

Sequence	PBM E-score
GGATACGA	-0.119
ACTCGATG	-0.0837
CAGGCCTG	0.122
CGCAGGGA	-0.0973
CCTCAGGA	-0.107
AAAACCCA	-0.00067
GCTCGCAA	-0.0425
ACTGGGTG	-0.11
ACTCTTTC	-0.111
CCTTCTGA	-0.144
ATCTAGAA	-0.197
AGTGTTGG	0.123
GAGGCGCC	0.00938
CGTTGTTA	-0.0419
CGAGTACG	0.0664
CAACTACG	0.0135
TAGGAAGA	-0.204
CACCCCAC	0.0293
ACCAAGGT	-0.0204
TCTGTAAA	-0.00165
ACCATCCT	-0.236
AAATATCG	0.0646
CGCTGGGA	0.103
AGACGGGC	0.0159
AAGTCTCT	-0.344

Sequence	PBM E-score
ATCTACAG	0.15
CAATGTGA	-0.068
GAGCTCAC	0.0138
GCTGGCCA	-0.0882
CCTACTTA	-0.273
ACAGACAA	0.1
CGCACGCA	-0.0248
CAGGGACA	0.0593
GTATTTCA	-0.159
AGCTCGGA	0.316
ACGGATTC	0.306
TATGCGGA	0.321
CGAATAAA	0.0582
CGAGGCAA	0.0619
TCACTCGA	-0.212
AGTTGCTA	0.0756
CAGACACA	-0.0198
CACGGGCG	0.248
CTAGGGTC	-0.294
AGGCACAG	-0.221
ATCGGTAA	0.0906
AGCCTTGA	-0.204
ACAAAGAA	-0.0116
GAATAAGC	-0.115
GATCGGAA	0.424

Sequence	PBM E-score
ATTAACTG	-0.0295
GATAATGC	0.0805
GTCTCCTA	-0.12
CTGAGGCC	0.0607
TGCTAGAA	-0.131
AACAGCGT	-0.0559
CGTGACGC	-0.0528
CAAACCCC	-0.166
AATCAGCT	-0.0592
AGCAGTTA	-0.0291
CTTCTCTA	-0.212
AATACCTC	-0.0269
AAGCCGCC	0.0806
ACTAAGGG	0.0252
AGAGTACC	-0.161
ATGATCAC	-0.0211
AACATATT	-0.0137
GGTCATTA	-0.209
CACCGTGA	0.0395
ACGCCGCT	0.0408
ACCCGCAG	0.173
AAACCTAC	-0.103
CATAGTCC	-0.0477
AGAACCAT	-0.111
GATCTGCA	-0.0215

Sequence	PBM E-score
TAATTTAA	0.0774
ACGCAAGC	-0.131
TCTTCTAA	-0.179
AACGCAAA	0.0603
ATAACGCG	0.168
GCATTAAA	-0.19
CGGCGTAC	0.0859
GATAGCGC	0.00808
AGATGGCC	0.0525
ACTACTCG	0.155
CCGAAGGC	0.0757
ACAAAAAT	-0.0114
AACACCAT	0.0653
AGAAGTGA	-0.146
ATCTTAGC	-0.2
CCACTGCC	0.0187
CTCAAGAA	-0.131
GGATGAAA	0.207
CATGGAAC	-0.0483
CTTCTAGC	-0.247
GATTGCTA	-0.175
AGCCCTTG	-0.198
TAGATCGA	-0.0685
GGGAGAAC	0.00594
ATTGTTTG	-0.0829

Sequence	PBM E-score
TCAGTTCA	-0.0302
GTGTGAAC	-0.0574
AACCCTGT	-0.104
AAGGTAAC	-0.00773
ACTTGCAA	-0.0567
TGGGCACA	0.00672
ATGGGCAA	0.0327
TCGACAGA	-0.14
CGCGACCC	0.00268
CAATTCTG	-0.0556
TGCTAAAA	-0.248
GCTGAATA	-0.197
AATGGTCA	-0.0101
AAAAAAGC	-0.211
CACTATCC	0.00589
CCGATGGC	0.175
GATCGGCA	0.0987
CCGTCACC	0.104
ACATCAGG	-0.0839
AGAGGGCT	-0.364
AACGTTCT	0.0356
ATGCCATA	-0.229
ACGGAAGT	0.393
CGGATGTC	0.325
AGGATACT	-0.0749

Sequence	PBM E-score
ACGCATTA	-0.214
AGAATAGA	-0.132
ACCAGCAT	-0.125
ATTTAGGG	0.0786
AGGCATAT	-0.108
ATAGGAAC	-0.0862
GGTATACA	-0.0963
CCGGCCCG	0.375
AAACAGAG	-0.152
ATACCTTG	-0.152
CAGAGTTA	0.0193
CGACCGTA	0.0323
ACGATTGA	-0.0575
CCACCCGA	0.216
GGGTTCCA	-0.0331
ACTGCAGG	-0.252
GAGCCCTC	-0.153
GTGCTATA	-0.0694
CTTCAAGC	-0.109
ACGTCCAG	-0.186
AGAAGACT	-0.305
ATAATTTA	0.119
TACGTTAA	-0.151
AGAATCTC	-0.0751
CGTACCCA	-0.111

Sequence	PBM E-score
GCTCATTA	-0.0242
ATTACGGC	0.0318
GTTGGAAA	-0.0837
CATTTGCG	0.0507
AGTGCGAA	-0.0442
CTAGCCAA	0.0338
AATACTCT	-0.0737
ATCCCTCA	-0.0655
ACACTGGG	-0.148
ATATCTTA	0.0771
ACGCCAGG	0.0401
AACTTACT	-0.125
GGAATGCC	0.289
TCATCTCA	0.117
CCGATGTC	0.0266
CAGCTAAC	-0.291
CGCTTGTA	0.0798
GAGTCACC	-0.0823
ACCTAGGA	0.0433
GCCGGCAA	0.37
AAAGGGAG	-0.214
CTATTGTA	-0.0911
